Results as given in the supplement of paper PMC10502849.
Where a name gives a salt, the structure may show the parent alone. This is one part of the list. Single values are uncertain, as repeats are few or missing.

What was measured:
[1] = system: H9 teratoma-derived LAM model cells, TSC2-/-; test: percent SyTOX+ dead cells; higher = more cytotoxic; details: 5 µM, treatment time 72 h, culture: 3D hyaluronic acid hydrogel
[2] = system: H9 teratoma-derived LAM model cells, WT; test: percent SyTOX+ dead cells; higher = more cytotoxic; details: 5 µM, treatment time 72 h, culture: 3D hyaluronic acid hydrogel, genotype: WT
[3] = system: H9 teratoma-derived LAM model cells, TSC2-/-; test: percent of cells invaded past median invasion distance of vehicle control; LAM is lymphangioleiomyomatosis; the cells come from teratomas of the human stem cell line H9; higher = more invasion; extreme values may be limits of the assay; details: 5 µM, treatment time 72 h, culture: 3D hyaluronic acid hydrogel
[4] = system: H9 teratoma-derived LAM model cells, WT; test: as above; details: 5 µM, treatment time 72 h, culture: 3D hyaluronic acid hydrogel, genotype: WT
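For percent SyTOX+ dead cells in this document: cells seeded atop a hyaluronic acid gel crosslinked via MMP-cleavable peptides, containing vitronectin peptides and methylcellulose, imaged live by high-content microscopy with automated analysis, one technical replicate per compound.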
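For percent of cells invaded past median invasion distance of vehicle control in this document: live cells imaged by high content microscopy and scored with in-house automated image analysis, one technical replicate per compound in each genotype and rapamycin condition.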

SMILES	percent SyTOX+ dead cells ([1]; rapamycin 0 nM) [%]	percent SyTOX+ dead cells ([1]; rapamycin 20 nM) [%]	percent SyTOX+ dead cells ([2]; rapamycin 0 nM) [%]	percent SyTOX+ dead cells ([2]; rapamycin 20 nM) [%]	percent ([3]; rapamycin 0 nM) [%]	percent ([3]; rapamycin 20 nM) [%]	percent ([4]; rapamycin 0 nM) [%]	percent ([4]; rapamycin 20 nM) [%]
Cc1cccc(-c2nn(C(=S)Nc3ccccc3)cc2-c2ccnc3ccccc23)n1	4.93	15.1	15.9	12.9	24.1	9.27	8.47	11.2
CC(C)N(CCCNC(=O)Nc1ccc(C(C)(C)C)cc1)C[C@H]1O[C@@H](n2ccc3c(N)ncnc32)[C@H](O)[C@@H]1O	11	14	17.6	18.5	61.5	57	66.4	52.1
O=C(NC1CCNCC1)c1[nH]ncc1NC(=O)c1c(Cl)cccc1Cl [AT-7519 hydrochloride, AT7519 hydrochloride]	36.2	25.8	47	30.5	13.1	14.7	5.73	1.3
CC[C@@H]1C(=O)N(C)c2cnc(Nc3ccc(C(=O)NC4CCC(N5CCN(CC6CC6)CC5)CC4)cc3OC)nc2N1C(C)C (some centres not stated) [BI-6727, volasertib]	50.5	26.2	40.2	31	10.7	43.8	16.8	31
O=C(CN1C2=NCCN2c2ccccc21)c1ccc(-c2ccccc2)cc1	11.7	8.92	21.4	14.7	64.9	58.6	58.9	53.9
CC(C)c1ccc(C(=O)c2cccs2)c(SCCCCCCCCN(C)C)n1	26.2	22.1	32.5	29	72.9	50.4	33.5	26.1
CC#CC(=O)Nc1cc2c(Nc3ccc(F)c(Cl)c3)ncnc2cn1	10.5	8.54	15.1	15.8	10.8	6.1	20.3	6.42
Fc1ccc(-c2nc3n(c2-c2ccncc2)CCS3)cc1	5.46	11.1	14.2	11.6	45.7	29.9	12.9	17.8
CCS(=O)(=O)Nc1ccc2c(c1)/C(=C(/Nc1ccc(CN3CCCCC3)cc1)c1ccccc1)C(=O)N2 [Hesperadin]	16.7	29.8	70.8	48	29.2	3.55	0.4	0
CCOC(=O)c1c2c3c(cccc3[nH]c1=O)C(=O)c1ccccc1-2	8.48	6.13	14.2	7.6	79.5	34.4	61	29.7
CC(NC(=O)Cc1cc(F)cc(F)c1)C(=O)NC(C(=O)OC(C)(C)C)c1ccccc1 (configuration not stated)	10.9	6.12	11	13.7	54.3	32.1	32.4	44
O=S(=O)(O)c1ccc2cc(N=Nc3cc(S(=O)(=O)O)c4cccnc4c3O)ccc2c1	9.72	9.79	11.9	8.33	49.6	42.1	29.4	49.6
COc1ccc(C(=O)Nc2sc3c(c2C(N)=O)CCCC3)cc1OC	9.41	14.9	7.36	11.6	19.7	9.06	14.7	21.2
Cc1ccc(NC2=CC(=O)c3sc(C)nc3C2=O)cc1 [Ryuvidine]	31.6	36.6	45	42.4	1.49	9.68	3.95	9.3
O=C(/C=C/c1cccc(S(=O)(=O)Nc2ccccc2)c1)NO	27.7	28.5	30.6	12	3.39	2.68	0	1.41
Cc1cccc(-c2[nH]ncc2-c2ccc3ncccc3n2)n1	2.48	1.49	13.6	14.3	98.8	53	86.7	29.1
CCCCc1nc2cc(/C=C/C(=O)NO)ccc2n1CCN(CC)CC [SB939, SB-939, Pracinostat]	18.5	17.1	22.6	3.9	11	6.45	0.75	7.14
CC1(COc2ccc3c(c2)ncn3-c2ccc3cccc(N4CCC(N)CC4)c3n2)COC1	22.6	20.3	41.7	46.7	0.94	0	1.67	2.22
O=C(c1ccc(Nc2nccc(-c3cc4ccccc4s3)n2)cc1)N1CCC(N2CCCC2)CC1	38.4	37.6	39.8	39.3	2.91	3.82	9.41	20.2
CCc1nc(-c2cccc(C)c2)c(-c2ccnc(NC(=O)c3ccccc3)c2)s1	13.2	24.1	31.8	23.5	40.1	22.6	1.35	7.65

SMILES	percent SyTOX+ dead cells ([1]; rapamycin 0 nM) [%]	percent SyTOX+ dead cells ([1]; rapamycin 20 nM) [%]	percent SyTOX+ dead cells ([2]; rapamycin 0 nM) [%]	percent SyTOX+ dead cells ([2]; rapamycin 20 nM) [%]	percent ([3]; rapamycin 0 nM) [%]	percent ([3]; rapamycin 20 nM) [%]	percent ([4]; rapamycin 0 nM) [%]	percent ([4]; rapamycin 20 nM) [%]
O=S(=O)(c1cccc2cnccc12)N1CCCNCC1 [Fasudil HCl, AT-877, HA-1077 (diHCl), Eril]	3.79	5.21	5.61	4.12	19.3	27.1	19.2	23.2
O=c1cc(N2CCOCC2)oc2c1ccc1ccccc12	22.7	28.2	15.3	12.5	7.27	6.34	1.53	1.92
CC(C)c1cc(/C=C(\C#N)C(=O)NCCCc2ccccc2)cc(C(C)C)c1O [Tyrphostin SU 1498, SU 1498]	25.9	16.7	19.2	33.7	47	34.7	0.53	16.8
CC(C)(C)OC(=O)Nc1ccc(-c2cc(C(=O)NCCCCCCC(=O)NO)no2)cc1	9.51	14.5	8.93	11.3	44.6	40.7	42.9	30.8
Cn1cnc2c(NCc3ccccc3)nc(NCCO)nc21 [Olomoucine]	8.92	9.36	7.12	8.7	39.2	35.1	35.3	43.8
Cn1c2ccccc2c2c3c(c4c5ccccc5n(CCC#N)c4c21)CNC3=O	13.8	24.5	31.8	23.9	23.4	8.51	1.18	2.75
O=C(Nc1nnc(-c2ccco2)o1)c1cc(-c2ccccc2)nc2ccccc12	6.42	9.5	26.4	25.5	77.1	54.8	36.5	43.5
Clc1ccc(C2(c3ccc(-c4cn[nH]c4)cc3)CCNCC2)cc1	14.4	15.6	64.2	61.3	5.48	1.83	3.25	0
O=C(NC[C@H](O)CO)c1ccncc1Nc1ccc(I)cc1F	14.2	6.01	18.7	23	70.3	96.8	47.2	56.9
Nc1ncnc2c1c(I)cn2[C@@H]1O[C@H](CO)[C@@H](O)[C@H]1O [5-Iodotubercidin]	39.1	18.1	54.8	29.2	4.65	12.6	3.92	13.6
NC(=O)C1CCCc2c1[nH]c1ccc(Cl)cc21 (configuration not stated)	4.46	22.6	16.6	19.3	22.6	19.2	17	30.7
Cn1cc(-c2ccc3nnc(Sc4ccc5ncccc5c4)n3n2)cn1	11.2	5.91	11.2	6.65	31.9	43.2	19.3	41
C#CC[C@H](c1nc2cc(Cl)ccc2c(=O)n1Nc1ccccc1)N(CCCN)C(=O)c1cccc(Cl)c1F	22.2	20	4	2.36	87.9	49.6	81.2	75.6
COc1cc2c(cc1-c1c(C)noc1C)ncc1[nH]c(=O)n([C@H](C)c3ccccn3)c12	14.1	13.2	21	19.3	77.1	74.1	67.2	58.1
O=C(O)CCNc1cc(N2CCc3ccccc3CC2)nc(-c2ccccn2)n1	22.5	13.4	20.3	22.3	21.6	10.9	28.4	22.7
COc1ccc(C2=N[C@@H](c3ccc(Cl)cc3)[C@@H](c3ccc(Cl)cc3)N2C(=O)N2CCNC(=O)C2)c(OC(C)C)c1 [Nutlin-3]	12.6	14.8	13.8	12.4	83.9	54.4	76.7	81.2
Cc1nc(N)sc1-c1ccnc(Nc2ccc(N3CCOCC3)cc2)n1	31.9	30.2	67.7	58.7	5.88	6.6	0.77	0
O=C(NOC[C@H](O)CO)c1ccc(F)c(F)c1Nc1ccc(I)cc1F	31.5	31.5	38.3	31.8	37.3	19.6	36.1	21.2
C=CC(=O)Nc1cc2c(Nc3ccc(F)c(Cl)c3)ncnc2cc1C#CC(C)(C)N1CCN(C)CC1	73	71.3	77	80	6.5	10.6	0	0.43
